Assay results: ChEMBL document CHEMBL1201862, “PubChem BioAssay data set” (2004)
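How tested: cells in 96-well plates exposed to compound for 48 hours at five concentrations. Here, GI50 denotes the concentration required for 50% inhibition of growth.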 Active and inactive are the calls of the source. Rule as the data show it: active = GI50 up to about 1.1 µM and inactive = higher. Numbered stars: 1 amine (or outer) side, 2 acyl side, 3 side chain; on linkers, the order of the positions; unused ones are H or OH. Bridge positions count the residues as written; N and C are the ends. Square brackets hold non-standard residues; d marks the D form. Peptide text beside a SMILES is read from it. I, II: the chains in the order shown. Actinocin(1to9) = Cc1c2oc3c(C)ccc(C(=O)[*:2])c3nc-2c(C(=O)[*:1])c(N)c1=O; NMeV = CN[CH](C(=O)O)C(C)C; Sar = CNCC(=O)O

System: NCI-H322M
Assay: DTP human tumour cell line panel, 48 h

Row | SMILES | GI50
1 | COc1ccc(-c2cc(-c3ccco3)c(C#N)c(=S)n2C2OC(COC(C)=O)C(OC(C)=O)C(OC(C)=O)C2OC(C)=O)cc1 (stereo unspecified) | inactive: 13.5 µM
2 | O=C(O)C1C2C=CC(C2)C1c1ccccc1 (stereo unspecified) | inactive: > 100 µM
3 | Nc1c(S(=O)(=O)O)cc(Nc2cccc(S(N)(=O)=O)c2)c2c1C(=O)c1ccccc1C2=O | inactive: 30.3 µM
4 | CC(Oc1ccc2cc(C(=O)c3ccccc3)c(=O)oc2c1)C(=O)O (stereo unspecified) | inactive: > 100 µM
5 | COc1ccc2c(c1)-c1[nH]c3ccccc3c1CC2 | inactive: 18.5 µM
6 | O=C(CC(=O)N1N=C(N(c2ccccc2)c2ccccc2)CC1c1ccccc1)Nc1ccc(Cl)cc1 (stereo unspecified) | inactive: > 100 µM
7 | C=C(C[N+](C)(C)C)N/N=C/c1oc(-c2ccc(OC)c(OC)c2)c(-c2ccc(OC)c(OC)c2)c1[N+](=O)[O-] | inactive: 21.8 µM
8 | Cc1nccc2c1cnc1ccnn12 | inactive: > 100 µM
9 | Cc1cc(C)c2nc3c(c(C(O)C4CCCCN4)c2c1)CC/C3=C\c1ccc(Cl)cc1 (stereo unspecified) | inactive: 47.9 µM
10 | C[C@]12CC[C@@H]3c4ccc(OC(=O)N(CCCl)CCCl)cc4CC[C@H]3[C@@H]1CC[C@@H]2O [ESTRAMUSTINE] | active: 0.025 µM
11 | Nc1nc2c(C(=O)NCc3cccs3)nnn2c2cccc(Cl)c12 | inactive: 99.5 µM
12 | CO[C@@H]1C=C[C@@]23c4cc5c(cc4C(O)N(CC2O)C3C1)OCO5 (stereo partly specified) | inactive: 3.7 µM
13 | Cn1c(=O)oc2cc(Br)ccc21 | inactive: > 100 µM
14 | c1cc2nnc1SCCSCCCSCCS2 | inactive: > 100 µM
15 | CN1c2ccccc2N(C(=O)c2ccc(Cl)cc2)C(CC(=O)O)c2cccn21 (stereo unspecified) | inactive: > 100 µM
16 | COc1ccc(OC)c2c3c([nH]c12)C(=O)Nc1nc(N)nc(N)c1C3 | inactive: > 100 µM

Row | SMILES | GI50
17 | C=CCNC(=O)NC1=CSC2=NC(=O)C3(NN12)c1ccccc1-c1ccccc13 | inactive: > 10 µM
18 | CC(=O)N[C@@H](Cc1ccc(O)cn1)C(=O)NCc1ccc(Cl)cc1 | inactive: > 100 µM
19 | CC(=O)O[C@H]1CC[C@@]2(C)C(=CC[C@@H]3C2CC[C@]2(C)C(=O)NC(=O)CC32)C1 (stereo partly specified) | inactive: > 100 µM
20 | COc1cc2cc(C(=O)N3CC(COS(C)(=O)=O)c4ccc(NC(=O)OCc5ccccc5)cc43)[nH]c2c(OC)c1OC (stereo unspecified) | inactive: > 100 µM
21 | C=C1C(=O)C23C(O)C1CC[C@H]2C12CCCC(C)(COC(C)=O)[C@H]1[C@H](O)[C@]3(O)OC2 (stereo partly specified) | inactive: 4.02 µM
22 | C=Cc1nc2nnc(CCCCCCCCc3nnc4nc(C=C)[nH]n34)n2[nH]1 | inactive: > 100 µM
23 | OCCCCn1cc(Cn2ncc3c(O)ncnc32)nn1 | inactive: > 100 µM
24 | CCOC(=O)c1nnn(CCCCO)c1C(=O)OCC | inactive: > 100 µM
25 | Oc1ccc(-c2nn3c(CCCCCCCCc4nnc5sc(-c6ccc(O)cc6)nn45)nnc3s2)cc1 | inactive: > 100 µM
26 | CCC(C)C1NC(=O)C(NC(=O)c2c3nc4c(C(=O)NC5C(=O)NC(C(C)CC)C(=O)N6CCCC6C(=O)N(C)CC(=O)N(C)C(C(C)C)C(=O)OC5C)ccc(C)c4oc-3c(C)c(=O)c2N)C(C)OC(=O)C(C(C)C)N(C)C(=O)CN(C)C(=O)C2CCCN2C1=O (stereo unspecified) (I: TIP[Sar][NMeV] / II: TIP[Sar][NMeV]; ester I:1-I:C, II:1-II:C; linker I:N-II:N via Actinocin(1to9); configuration not given here) | active: 0.00171 µM
27 | CC1(C2(C)OC(=O)c3ccccc32)OC(=O)c2ccccc21 (stereo unspecified) | inactive: > 100 µM
28 | CC(C)CC(NP(=O)(O)OC1OC(C)C(O)C(O)C1O)C(=O)NC(Cc1c[nH]c2ccccc12)C(=O)O (stereo unspecified) | inactive: > 100 µM
29 | CN1Cc2c(ccc3c2OCO3)[C@@H]2[C@H](O)Cc3cc4c(cc3[C@@H]21)OCO4 | inactive: 4.8 µM
30 | COc1cccc2c(=O)oc(-c3ccc(C(C)(C)C)cc3)nc12 | inactive: > 100 µM
31 | CCCCc1ccc(Nc2nc3c(ncn3COCCBr)c(=O)[nH]2)cc1 | inactive: > 100 µM
